# Measurements published in the BET-seq Pho4 binding data (Le et al. 2018).
# This is one part of the list. Values were computed here from the reads of four pooled replicates and scatter widely.
# Molecular target: T1, Pho4 (S. cerevisiae) (UniProt P07270)
# T1 sequence: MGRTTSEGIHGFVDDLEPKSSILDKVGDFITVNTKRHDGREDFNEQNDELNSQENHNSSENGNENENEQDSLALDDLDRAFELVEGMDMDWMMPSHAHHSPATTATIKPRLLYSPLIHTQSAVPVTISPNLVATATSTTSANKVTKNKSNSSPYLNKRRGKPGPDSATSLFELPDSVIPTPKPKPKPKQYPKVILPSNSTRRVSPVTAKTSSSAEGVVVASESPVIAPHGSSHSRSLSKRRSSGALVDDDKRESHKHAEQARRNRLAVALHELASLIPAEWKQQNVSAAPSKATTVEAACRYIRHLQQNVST
# Test: relative binding free energy (BET-seq); higher = weaker binding
# Settings: reference: library average
row,Sequence,relative binding free energy
1,CGATGCACGTGGGGGT,-0.36 kcal/mol
2,CAGGGCACGTGTTGAA,-0.11 kcal/mol
3,TCTGTCACGTGGGTCA,-0.04 kcal/mol
4,GGGGTCACGTGATACG,0.19 kcal/mol
5,CATTGCACGTGTATGG,-0.01 kcal/mol
6,TTTTGCACGTGCGGTG,-0.01 kcal/mol
7,AAGGTCACGTGGGCAA,-0.04 kcal/mol
8,TAGATCACGTGTAATG,0.23 kcal/mol
9,GGATACACGTGTTGGG,0.04 kcal/mol
10,ATTTTCACGTGTGGCA,0.23 kcal/mol
11,CGGTTCACGTGTCGAG,0.24 kcal/mol
12,CTTGGCACGTGGGGTT,-0.18 kcal/mol
13,TGGGACACGTGGGTTT,-0.03 kcal/mol
14,AGTTTCACGTGGACTG,0.34 kcal/mol
15,AATTTCACGTGGGAGT,0.24 kcal/mol
16,GTTATCACGTGAGTGG,0.4 kcal/mol
17,TTATCCACGTGGTTGG,-0.09 kcal/mol
18,AAGTTCACGTGAGGTG,0.28 kcal/mol
19,TAGATCACGTGATGAT,0.18 kcal/mol
20,TGTGACACGTGGTCTT,-0.16 kcal/mol
21,TTCGTCACGTGGTCTT,-0.11 kcal/mol

row,Sequence,relative binding free energy
1,AAAGTCACGTGGTTTT,0.07 kcal/mol
2,GAGGGCACGTGGATTG,-0.08 kcal/mol
3,TTTTGCACGTGTCTAA,-0.03 kcal/mol
4,CTGGGCACGTGCGAGG,-0.24 kcal/mol
5,ATGTGCACGTGGGCGC,-0.16 kcal/mol
6,GATGGCACGTGATTCT,0.23 kcal/mol
7,ATTGCCACGTGTTTTG,0.02 kcal/mol
8,TGGTCCACGTGTTGAA,0.18 kcal/mol
9,AATGACACGTGGTAAT,-0.07 kcal/mol
10,AAGTGCACGTGTTCAT,-0.02 kcal/mol
11,AGTTGCACGTGGTTTC,0.01 kcal/mol
12,TCTGTCACGTGAGGTA,0.17 kcal/mol
13,TATACCACGTGTTGTG,-0.19 kcal/mol
14,TAGGGCACGTGAGTGT,0.12 kcal/mol
15,ACGATCACGTGTATTG,0.34 kcal/mol
16,GAGTTCACGTGGTTTT,0.38 kcal/mol
17,GTAAGCACGTGGAATT,0.03 kcal/mol
18,TGAGACACGTGAGGTA,0.34 kcal/mol
19,GAGATCACGTGTTCGT,0.29 kcal/mol
20,TACGTCACGTGAGTGT,0.12 kcal/mol
21,CGTTACACGTGTCGTT,0.12 kcal/mol

row,Sequence,relative binding free energy
1,AGGATCACGTGGAGGT,0.11 kcal/mol
2,GTCGGCACGTGGCGTT,-0.06 kcal/mol
3,TGTTACACGTGAGGAA,0.37 kcal/mol
4,TGTTTCACGTGGCTTG,0.32 kcal/mol
5,GATTGCACGTGATCGG,0.08 kcal/mol
6,TTCTGCACGTGCATGG,0.01 kcal/mol
7,GGAAGCACGTGGTGTA,-0.11 kcal/mol
8,AATGTCACGTGTTGTA,0.02 kcal/mol
9,TGATTCACGTGGGCAA,0.22 kcal/mol
10,TAGGTCACGTGGATCA,0.13 kcal/mol
11,TCTTACACGTGGAGTT,0.22 kcal/mol
12,CCGGACACGTGTGGGT,0.13 kcal/mol
13,CGTGGCACGTGGCGAG,-0.21 kcal/mol
14,TGGCTCACGTGATGTA,0.12 kcal/mol
15,TAGTGCACGTGGCTGA,-0.05 kcal/mol
16,TTGTGCACGTGTGTCA,0.07 kcal/mol
17,CTAGTCACGTGTCGTG,-0.01 kcal/mol
18,TTTCGCACGTGTGAGG,0.2 kcal/mol
19,TTAACCACGTGTTTAG,0.03 kcal/mol
20,GGGGCCACGTGCGCGG,-0.21 kcal/mol
21,TCTTTCACGTGCGTTT,0.12 kcal/mol
